This note sets out measurements from PubChem BioAssay AID488969 (Vanderbilt High Throughput Screening Facility, 2010).

The full ranking holds about 110,000 compounds; the median of “z-score” is about -0.1, and the highest 2% start at about 2. This is one part of the list. Calls of active or inactive are those of the source.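 Rule for the calls: active = z-score in the third read window above 3 or below -3; inactive = the rest.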

The experiment concerns the target Metabotropic glutamate receptor 8 (Rattus norvegicus) (UniProt P70579). The experiment can be described thus: rat mGluR8 modulators via GIRK flux, primary screen, cell-based, thallium flux, HTS (AID 488969). The note with it: HEK293 rat mGluR8, GIRK (G protein-gated inwardly rectifying potassium channel) thallium flux, FluoZin2; at 10 µM; stronger effect = higher value; submaximal glutamate (EC20) added with thallium.
Chain of UniProt P70579 (P70579 whole entry, looked up): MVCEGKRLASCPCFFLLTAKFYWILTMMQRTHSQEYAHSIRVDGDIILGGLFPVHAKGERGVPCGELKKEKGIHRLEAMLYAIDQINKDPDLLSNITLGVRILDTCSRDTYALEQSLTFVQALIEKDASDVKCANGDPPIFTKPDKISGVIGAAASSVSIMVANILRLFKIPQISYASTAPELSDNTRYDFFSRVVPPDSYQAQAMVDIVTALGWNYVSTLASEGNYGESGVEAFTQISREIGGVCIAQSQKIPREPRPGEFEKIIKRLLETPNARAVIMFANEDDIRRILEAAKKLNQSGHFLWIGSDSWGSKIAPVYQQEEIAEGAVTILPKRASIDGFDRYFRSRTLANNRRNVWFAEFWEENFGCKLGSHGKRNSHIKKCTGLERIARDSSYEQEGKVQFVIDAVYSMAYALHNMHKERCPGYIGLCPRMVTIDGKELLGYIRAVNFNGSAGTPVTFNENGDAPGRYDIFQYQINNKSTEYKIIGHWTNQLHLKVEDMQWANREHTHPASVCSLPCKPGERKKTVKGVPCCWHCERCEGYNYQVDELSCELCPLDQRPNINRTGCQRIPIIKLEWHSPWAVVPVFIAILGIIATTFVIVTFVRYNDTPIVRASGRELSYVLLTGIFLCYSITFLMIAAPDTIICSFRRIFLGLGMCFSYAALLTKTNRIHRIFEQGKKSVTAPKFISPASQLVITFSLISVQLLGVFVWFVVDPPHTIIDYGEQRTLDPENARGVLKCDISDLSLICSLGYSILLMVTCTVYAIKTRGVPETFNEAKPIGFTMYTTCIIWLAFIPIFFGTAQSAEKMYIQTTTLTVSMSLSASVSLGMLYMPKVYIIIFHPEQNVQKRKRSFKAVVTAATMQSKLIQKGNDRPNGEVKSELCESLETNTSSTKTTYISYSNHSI
As for `COc1ccc(-c2noc(CCC(=O)N(C)c3cccc(C)c3)n2)cc1`, the z-score is -0.987.
The figure for `OC1CCCN(c2c3c(nc4cc(-c5cccc(Cl)c5)nn24)CCC3)C1` (centres undefined) is -0.591.
The figure for `O=C(CCC(=O)c1cccs1)c1cccs1` is -0.0451.
Turning to `Cc1nc([N+](=O)[O-])nn1C12CC3CC(CC(Br)(C3)C1)C2`, the z-score is -0.0526.
The figure for `C=CCNc1sc(C(=O)C2CC2)c(N)c1C#N` is -0.389; for `O=C(CCC(=O)c1ccc(F)cc1)Nc1cccc(S(=O)(=O)Nc2cccc(Cl)c2)c1` it is -0.116.
The figure for `CC1=C(C(=O)O)N2C(=O)C(NC(=O)c3nn(C)cc3Cl)C2SC1` (centres undefined) is -0.314.
The figure for `O=c1c2c(n3cnnc3n1C1CCCCC1)-c1ccccc1CC21CCCCC1` is -0.288.
On to `Brc1ccc(-c2nc(-c3cccnc3)no2)o1`, for which the z-score was -0.481.
The figure for `CCCOC(=O)c1ccc(NC(=O)CCOc2ccccc2)cc1` is -0.163; for `O=C(Cc1c(Cl)cccc1Cl)OCC(=O)N1CCc2ccccc2C1` it is -0.602.
The figure for `CCC(=O)N(Cc1ccc(C)cc1)Cc1cc2cc3c(cc2[nH]c1=O)OCO3` is -0.276; for `O=C(NNS(=O)(=O)c1ccccc1)c1cccs1` it is -0.0511; for `O=C(CSCc1cccc(Cl)c1)N1CCN(Cc2ccc3c(c2)OCO3)CC1` it is 0.923.
On to `CCOCC(=O)Nc1nc2ccc(OC)cc2s1`, for which the z-score turned out to be 0.28.
The figure for `CCCCC(=O)Nc1nn(CC(C)C)c2nc3ccccc3cc12` is -0.533.
For `CCOC(=O)c1sc(NCC2CCCO2)nc1C` (centres undefined), the z-score is 0.07.
The figure for `CCCS(=O)(=O)N1CCCC(C(=O)NCCCOCC)C1` (centres undefined) is 0.147.
The figure for `COc1ccc(/C=C/C(=O)NC(=S)NN2CCCCC2c2cccnc2)cc1OC` (centres undefined) is 0.0576; for `CCOC(=O)C(CC)n1cnc2sc3c(c2c1=O)CCC3` (centres undefined) it is -0.321.
The figure for `COc1ccc(-c2nnc(NC(=O)c3ccc(F)cc3)o2)cc1` is active: 5.46; for `CC(=O)Oc1cccc(N2C(=O)C3C4C=CC(C4=C(C)C)C3C2=O)c1` (centres undefined) it is -1.01.
Molecule `O=C(COC(=O)c1ccc(S(=O)(=O)N2CCOCC2)cc1)Nc1nc(-c2ccccc2)cs1` gave a z-score of 0.333.
The figure for `CCOCCn1c(CN(Cc2ccccc2)Cc2ccccc2)nc2c1c(=O)n(C)c(=O)n2C` is 0.389; for `Cn1c(Cc2ccccc2)nnc1SCC(=O)N1CCN(c2ccccc2)CC1` it is 0.344; for `CCOC(=O)c1ccc(N2Cc3ccccc3C2=N)cc1` it is -0.161.
`COc1ccc(NC(=O)C(c2cc3c(cc2[N+](=O)[O-])OCO3)N(C)c2ccccc2)cc1` (centres undefined): the z-score is -0.662.
The figure for `Cc1ccc(C(=O)/C=C/c2c[nH]c3ccccc23)cc1` is -0.133; for `Cc1ccc(SCc2cc(=O)[nH]c(/N=C(\N)Nc3ccc(C)c(C)c3)n2)cc1` it is -0.104; for `O=C(COC(=O)Cn1cnc2ccccc2c1=O)Nc1ccccc1Sc1ccc(Cl)cc1` it is 0.148.
`Cc1nn(Cc2c(Cl)cccc2Cl)c(C)c1NC(=O)c1cn(-c2ccccc2)nc1-c1ccccc1` returned a z-score of 0.0645.
The figure for `CCOC(=O)C(O)(CC(=O)Nc1ccc(Cl)cc1Cl)C(F)(F)F` (centres undefined) is 0.0131.
In turn, `CCOC(=O)CN(C(=O)CSc1nnc(-c2ccc(OC)c(OC)c2)o1)c1ccc(F)cc1` had a z-score of 0.0821.
The figure for `COc1cc(S(=O)(=O)N2CCCCC2)ccc1NC(=O)c1ccccc1Cl` is -2.09; for `O=C(c1cccc(N2C(=O)C3C4C=CC(C4)C3C2=O)c1)N1CCCCCC1` (centres undefined) it is -0.208.
With `Cc1ccc(NC(=O)CCC(=O)NNC(=O)c2ccco2)cc1C`, the z-score was -0.178.
The figure for `O=C(COc1ccc(Br)cc1)NCc1ccccn1` is -0.391.
The figure for `O=C(c1ccc(C23CC4CC(CC(C4)C2)C3)o1)N1CCOCC1` is 1.64.
Turning to `Fc1ccc(CSc2ncnc3scc(-c4ccccc4)c23)cc1`, the z-score is -0.149.
The figure for `Nn1c(COc2ccc(Cl)cc2)nc2ccccc2c1=O` is -0.285; for `Cc1cccc(Oc2ncc(-c3ccc(Cl)cc3)cn2)c1` it is 0.0612.
With `COC(=O)N/N=C/c1cccnc1`, the z-score was -0.224.
Regarding `CC(C)Cc1nc(N2CCOCC2)c(C#N)c2c1CCC2`, the z-score was -0.603.
Consider `COC(=O)NCC(c1cccnc1)N1CCN(c2ccccc2)CC1` (centres undefined), for which the z-score is -0.0866.
The figure for `ONC(=Nc1ccccc1)c1ccccc1Cl` is -0.0413.
The figure for `CCN1CCN(c2nc(Nc3ccc(C)c(C)c3)nc(N)c2[N+](=O)[O-])CC1` is 0.0631.
The figure for `Cc1ccccc1-c1nc2cc(Cl)ccc2o1` is 0.302; for `CC(C)[C@H](N)c1nnc(SC/C=C/c2ccccc2)o1` it is -0.475; for `CCOC(=O)c1ccc(NC(=O)c2ccccc2[N+](=O)[O-])cc1` it is -0.169.
Molecule `COc1cc(OC)c(S(=O)(=O)N2CCCCC2)cc1S(=O)(=O)N1CCCCC1` showed a z-score of 0.721.
The figure for `CC(=O)Nc1ccc(OC(=O)C(CCS(C)(=O)=O)N2C(=O)c3ccccc3C2=O)cc1` (centres undefined) is 0.407; for `Nc1ccc(-c2nc3c(Cl)c(N)ccc3[nH]2)cc1` it is 0.205; for `CCCn1c(CNC(=O)c2cccs2)nc2ccccc21` it is -0.517.
The figure for `CCS(=O)(=O)N1CCCC(C(=O)NCCN(C)Cc2ccccc2)C1` (centres undefined) is -0.167.
The figure for `Cc1cc(NC(=O)CSc2nnc(Cc3ccccc3)o2)no1` is 0.0242; for `Cc1noc(/C=C/N(C)C)c1S(=O)(=O)NC1CCCCC1` it is -0.658.
On to `CC(C)(C)OC(=O)N1CCC(c2c(C(=O)O)cnn2-c2ccc(Cl)cc2)CC1`, for which the z-score is 0.071.
Regarding `CCC(C)NC(=O)c1c(N)n(/N=C/c2cccs2)c2nc3ccccc3nc12` (centres undefined), the z-score was determined as 0.0751.
`O=C1c2ccccc2C(=O)N1OS(=O)(=O)c1ccccc1` gave a z-score of 0.0113.
The figure for `COc1ccc(S(=O)(=O)N2CCC(C(=O)N3CCc4ccccc4C3)CC2)cc1C` is -0.772; for `Cc1ccccc1NC(=O)c1ccc(CSc2ncccn2)cc1` it is -0.061; for `Cc1cc(C(=O)COC(=O)c2ccc(CO)cc2)c(C)n1CC1COc2ccccc2O1` (centres undefined) it is -0.0509.
As to `CC(=O)Nc1ccc(SCC(=O)c2cc(C)n(Cc3cccs3)c2C)cc1`, the z-score is -0.335.
The figure for `O=[N+]([O-])c1c(NCCO)cc(N2CCC3(CC2)OCCO3)c2nonc12` is 0.128; for `COc1ccccc1-c1ccc(Nc2cccc(C(F)(F)F)c2)nn1` it is 0.399.
In the case of `CC(C)CC(=O)N1CCN(Cc2ccc3c(c2)OCO3)CC1`, the z-score was -0.28.
In the case of `O=C1NC2(CCc3ccccc32)C(=O)N1CCOc1ccc(Cl)cc1` (centres undefined), the z-score was -0.107.
The figure for `CCC(=O)NC(c1ccccc1Cl)c1c(O)ccc2ccccc12` (centres undefined) is -0.449.
The figure for `Cc1c(NC(=O)c2cc3ccccc3c(=O)s2)c(=O)n(-c2ccccc2)n1C` is -0.205; for `CCOC(=O)N1CCN(C(=O)CSc2nnc(-c3cc(OC)cc(OC)c3)o2)CC1` it is -1.14.
As for `CC1(C)CC(=O)C=C(NCCN2CCN(C(=O)Nc3ccc(Cl)cc3)CC2)C1`, the z-score is -0.625.
`O=S(=O)(/N=C(/Sc1ccccc1)c1ccccc1)c1ccccc1`: the z-score is -0.61.
As to `CCOC(=O)c1sc(-c2ccccc2)cc1NC(=O)Nc1ccccc1`, the z-score is -0.034.
On to `CC1Oc2ccccc2C=C1/C=C1/SC(N2CCOCC2)=NC1=O` (centres undefined), for which the z-score was -0.342.
The figure for `CC1=NN(c2ccc(Cl)c(C(=O)O)c2)C(=O)C1` is -0.0421.
In the case of `Cc1cc(C)nc(Nc2ncc(O)n2-c2ccc(C)c(C)c2)n1`, the z-score is -0.225.
As for `CSc1ccc(CNc2ccccn2)cc1`, the z-score is -1.02.
In turn, `Cc1ccc(Nc2n[nH]c(C)c2[N+](=O)[O-])cc1C` came in with a z-score of 2.51.
Take `Cc1cccc(N(C(=O)c2csnn2)C(C(=O)NC(C)(C)C)c2ccncc2)c1` (centres undefined): the z-score was -0.134.
Turning to `C=COCCn1c(-c2nonc2N)nc2ccccc21`, the z-score was determined as 0.256.
As to `COC(=O)Cn1ncc(N2C3CC(CC(C)(C)C3)C2C)c(Cl)c1=O` (centres undefined), the z-score is -0.196.
The figure for `CNC(=O)NCCN1CCCC1=O` is 0.0396; for `FC(F)(F)c1nnc2ccc(-n3ccnc3)nn12` it is 0.0397.
`COc1cc(/C=c2\sc3n(c2=O)CCCN=3)ccc1O`: the z-score came to 0.13.
The figure for `C=CCNC(=S)Nc1ccc(F)cc1F` is -0.172; for `COc1cccc(/C=N/n2c(C)nc3ccccc32)c1OC` it is -0.136; for `CCOc1cc(N2CCOCC2)c(OCC)cc1NC(=O)CN1CCC(Cc2ccccc2)CC1` it is -0.185.
`Cc1ccccc1CN1CCNC1=O`: the z-score was -0.251.
On to `CNC(=S)Nc1ccc(Nc2ccccc2)cc1`, for which the z-score amounted to 0.0658.
`Cc1ccc(NC(=O)CN2C(=O)N/C(=C/c3cccn3-c3ccc(C(=O)O)cc3)C2=O)cc1`: the z-score is -0.0674.
Molecule `Cc1oc(CC(C)C)cc1C(=O)Nc1cccc2ccccc12` returned a z-score of 0.0109.
As to `CCCCNC(=O)C1CC(c2c(Cl)cccc2Cl)=NO1` (centres undefined), the z-score was -0.0558.
For the molecule `O=C(Nc1cccc(Cl)c1)c1cnn2cccnc12`, the z-score came to 0.216.
The molecule `CCS(=O)(=O)N1CCC(C(=O)NCC2CCCO2)CC1` (centres undefined) gave a z-score of 0.112.
`CCN(CC)C(=O)CSc1nc2ccccc2n1CC(=O)N1CCN(c2ccccc2OC)CC1`: the z-score turned out to be 0.337.
The figure for `CC(C)(C)CC(=O)NCc1ccc(F)cc1` is 0.0781; for `CCOC(=O)C1CCCN(c2c(N3CCN(C)CC3)c(=O)c2=O)C1` (centres undefined) it is 0.129; for `O=S(=O)(Nc1nc2ccccc2nc1NCCO)c1cccc(Cl)c1` it is 0.581.
Regarding `Cc1coc(NC(=O)CSc2nc(-c3ccc(Cl)cc3)cc(C(F)(F)F)c2C#N)n1`, the z-score was -0.241.
The figure for `Cc1ccc(CNC(=O)CCS(=O)(=O)c2ccc(Br)s2)o1` is 0.422.
Consider `Cc1ccc(NC(=O)c2ocnc2C)cc1Cl`, for which the z-score was -0.249.
As for `Nc1nc(Sc2ccc(C(F)(F)F)cn2)n[nH]1`, the z-score stood at 0.142.
`CCCCCCCCCOC1OC(CO)C(O)C(O)C1NC(C)=O` (centres undefined): the z-score was -0.01.
`O=C(CSc1nc2ccccc2c(=O)n1Cc1ccco1)c1ccc(F)cc1`: the z-score was found to be 0.0546.
The figure for `O=C(CCCCCn1c(=O)[nH]c2ccsc2c1=O)N1CCN(C2CCCCC2)CC1` is -1.04.
The figure for `S=c1[nH]cc(-c2ccc(Cl)cc2)n1-c1ccccc1` is 1.94; for `O=C(O)C1CCCCN1S(=O)(=O)c1cccc2nsnc12` (centres undefined) it is 0.389; for `CCOC(=O)c1c(NC(=O)c2c(Br)cnn2CC)sc(C)c1C` it is -0.131.
The figure for `CC1CC(NS(=O)(=O)c2cccs2)CC(C)(C)C1` (centres undefined) is 0.0261.
Consider `O=C(NCCNc1ccc([N+](=O)[O-])cc1C(F)(F)F)c1ccccc1`, for which the z-score is -0.682.
For the molecule `CC(=O)c1cccc(NC(=O)COC(=O)[C@@H](NC(=O)OCc2ccccc2)C(C)C)c1`, the z-score was -0.658.
The figure for `COc1ccc(CNC(=O)c2ccc(NC(=O)CC3SC(N4CCCCC4)=NC3=O)cc2)cc1` (centres undefined) is -0.0519; for `Cc1ccc(OCC(=O)c2cc(C)c(C)cc2C)c([N+](=O)[O-])n1` it is -0.11.
The figure for `CCOc1cc(CNCCc2ccc(S(N)(=O)=O)cc2)cc(Cl)c1OCc1ccccc1` is -0.78.
